# This is one part of the list. Values were computed here from the reads of four pooled replicates and scatter widely.
# Biological target: T1, Pho4 (S. cerevisiae) (UniProt P07270)
# T1 sequence: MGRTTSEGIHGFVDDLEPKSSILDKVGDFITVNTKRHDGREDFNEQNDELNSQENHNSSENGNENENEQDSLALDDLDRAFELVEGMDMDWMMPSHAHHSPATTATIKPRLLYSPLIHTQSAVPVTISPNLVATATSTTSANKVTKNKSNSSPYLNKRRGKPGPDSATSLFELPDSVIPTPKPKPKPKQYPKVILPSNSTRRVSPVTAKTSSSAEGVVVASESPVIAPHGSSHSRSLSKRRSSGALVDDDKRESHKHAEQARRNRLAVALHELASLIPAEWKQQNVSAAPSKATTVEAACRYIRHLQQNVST
# Assay: relative binding free energy (BET-seq); higher = weaker binding
# Settings: reference: library average
row,Sequence,relative binding free energy [kcal/mol]
1,TAGTTCACGTGTTAGC,0.36
2,GCTTACACGTGGGGCG,0.02
3,TAGCTCACGTGTTTGG,0.29
4,GTGTGCACGTGCGGTT,0.11
5,TATAGCACGTGATTGG,0.08
6,TTATGCACGTGCAGGA,-0.1
7,TAAAACACGTGTTTTA,0.04
8,GGATTCACGTGTGAGA,0.34
9,CGGCGCACGTGGAGGG,-0.14
10,AAAAGCACGTGAGGGT,0.18
11,CGTGGCACGTGTAGCG,-0.06
12,GGGCCCACGTGGTGGA,-0.17
13,AAGGTCACGTGAGGTT,0.43
14,TTATTCACGTGATCTT,0.21
15,GTATGCACGTGGGATT,-0.07
16,TTTCACACGTGGTAGG,0.02
17,GATGGCACGTGGGTTA,-0.08
18,GTGCTCACGTGATTAG,0.29
19,TAAGCCACGTGTGATT,0.03
20,TTCGTCACGTGCATTT,0.08
21,AGTGTCACGTGGTGGG,0.06
22,GTGTGCACGTGATAAA,0.24
23,TGATTCACGTGATGTC,0.31

row,Sequence,relative binding free energy [kcal/mol]
1,GAGAGCACGTGGTGCT,0.05
2,TTGGACACGTGGAGTG,0.03
3,ATGTTCACGTGGTTGC,0.24
4,AAGGTCACGTGTTCTA,0.11
5,GAGCGCACGTGAGGGA,0.21
6,TGTCGCACGTGTGATG,0.1
7,TTTCACACGTGAGGTG,0.41
8,TGGTTCACGTGATCAG,0.39
9,GTTCGCACGTGATAGG,0.13
10,GTGTTCACGTGGATTG,0.27
11,AATGTCACGTGAAGGA,0.26
12,CGGAGCACGTGTAGAT,0.26
13,TGTATCACGTGTTGTG,0.11
14,CATTTCACGTGAAGTT,0.39
15,TGCGACACGTGGGGGA,-0.07
16,TATTCCACGTGCTGGT,0.01
17,ATGATCACGTGGTTAA,-0.01
18,TGGTTCACGTGTCGGT,0.28
19,TGGCTCACGTGTGCTG,0.26
20,GCTTGCACGTGGATGA,0.13
21,TTTTTCACGTGAGGCC,0.52
22,GCTATCACGTGTGGTT,0.09
23,GTTGACACGTGGGATG,0.07

row,Sequence,relative binding free energy [kcal/mol]
1,TTGGCCACGTGAGATT,0.18
2,GTGCTCACGTGTAAGG,0.25
3,TTTTTCACGTGTGATT,0.33
4,AGGGGCACGTGTAGTA,-0.01
5,GTGCTCACGTGGTTGC,0.29
6,TATATCACGTGGAAAT,0.25
7,AAGGTCACGTGAGTGA,0.25
8,GATTTCACGTGTAAGA,0.38
9,AAACGCACGTGGTGGG,-0.25
10,TATTTCACGTGGAGGA,0.11
11,GTTATCACGTGGAAGT,0.21
12,GGGTTCACGTGTCTCG,0.34
13,TTTAACACGTGTGCAG,0.06
14,TTGTACACGTGTTTCT,-0.01
15,GCGATCACGTGTAGGG,0.22
16,TGTGTCACGTGGAGCA,-0.09
17,TAAATCACGTGGCGGT,0.12
18,AGAGTCACGTGTGTGG,0.18
19,ACTGTCACGTGGGGAG,-0.13
20,CGTGTCACGTGGAGGA,-0.02
21,CTTGGCACGTGAAGGG,0.17
22,AACGACACGTGGGTAG,0
23,AAATTCACGTGAATAT,0.42

row,Sequence,relative binding free energy [kcal/mol]
1,AGGTCCACGTGGGGAT,-0.12
2,GAGCTCACGTGGTCGT,0.44
3,TATTCCACGTGGGGGT,0.01
4,ATAAGCACGTGGCGCG,-0.02
5,CTTGTCACGTGGTTCG,0.05
6,GTTTACACGTGAATAT,0.42
7,GAAAGCACGTGTAGTT,0.03
8,TTCGCCACGTGGTTGG,-0.17
9,TGGTGCACGTGATGCA,0.07
10,GATATCACGTGGATGG,0.25
11,TGTCGCACGTGAAGGT,0.19
12,TGTCTCACGTGTAGAG,0.16
13,TGTTACACGTGTCGGC,0.26
14,ATATACACGTGTTGGT,0.01
15,TTGGTCACGTGTGAAG,0.23
16,CCGGTCACGTGTGGTA,0.13
17,ATAAGCACGTGGATTT,-0.12
18,ATGTGCACGTGCTTGA,-0.07
19,CTTATCACGTGGTGTA,-0.02
20,TTGGACACGTGAAATG,0.22
21,GAGGGCACGTGATGGT,0.09
22,TGAGTCACGTGTTGGA,0.03
23,GGGTGCACGTGGATTC,0.21

row,Sequence,relative binding free energy [kcal/mol]
1,ATTGGCACGTGAGCGC,0.06
2,GGTTACACGTGTATTG,0.04
3,ATGTACACGTGGCTGT,-0.02
4,GTGGTCACGTGGGTTA,0.01
5,ATTTTCACGTGTATGT,0.24
6,GGCCGCACGTGGGGGG,-0.17
7,TAGTGCACGTGTCAAG,0.05
8,GATTTCACGTGGTAAA,0.37
9,GGCAGCACGTGGTGAA,0
10,TGAACCACGTGGGTTT,-0.05
11,GAATACACGTGGAGTG,-0.06
12,AGTAGCACGTGTTAGT,-0.2
13,GGCGCCACGTGGGATG,-0.11
14,AGTGGCACGTGGTGCT,-0.25
15,TTCTTCACGTGGTTGT,0.32
16,CAGTTCACGTGTGAAT,0.38
17,CAGGGCACGTGTTGGT,-0.06
18,CGTGACACGTGGGTCT,-0.08
19,ACTCTCACGTGGGGGT,0.11
20,TGGCACACGTGGCTTG,0.08
21,GGGGCCACGTGCGTGT,-0.14
22,CATGTCACGTGGTTAT,-0.02
23,ACTTGCACGTGGGTAA,-0.1
